# Over roughly 81,000 sequences, “one-hybrid fitness for binding parS DNA” has its median near -0.17; the highest 2% begin near 0.51. The list shows a part of the results.
# B1: Caulobacter ParB omega fusion; a variant is named by its letters at X, in order, B8GW30 (parent)
# chain: MESVVVGEPGMSEGRRGLGRGLSALLGEVDAAPAQAPGEQLGGSREAPIEILQRNPDQPRRTFREEDLEDLSNSIREKGVLQPILVRPSPDTAGEYQIVAGERAWRAAQRAGLKTVPIMVRELDDLAVLEIGIIENVQRADLNVLEEALSYKVLMEKFERTQENIAQTIGKSXSHVANXMRLLXLPDEVQSYLVSGELTAXHARAIAAAADPVALAKQIIEGGLSVRETEALARKAPNLSAGKSKGGRPPRVKDTDTQALESDLSSVLGLDVSIDHRGSTGTLTITYATLEQLDDLCNRLTRGI
# Variants of: B1
# Experiment: one-hybrid fitness for binding parS DNA (scaled: cognate 1, non-cognate 0); higher = stronger binding
# Conditions: with parS DNA site
# Summary of the method: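 Caulobacter ParB libraries with four specificity codons randomised were screened by bacterial one-hybrid selection in the E. coli USO strain, using a HIS3 reporter whose site lies 19 bp from the promoter. Selection ran for 48 hours at 37°C on M9 lacking histidine, with 0.1 mM IPTG and 5 mM 3-AT. Plasmids were Illumina-sequenced before and after selection, three replicate libraries were pooled, and variants with under 10 reads were dropped. Fitness is the log change in each variant's read ratio to wild type, rescaled against the cognate and non-cognate sites.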
row,Variant,one-hybrid fitness for binding parS DNA
1,ASSD,≤ 0.2
2,LPQF,≤ 0.2
3,PAKT,≤ 0.2
4,HVNR,≤ 0.2
5,QVKT,≤ 0.2
6,SREL,≤ 0.2
7,PFRN,≤ 0.2
8,VKHM,≤ 0.2
9,WWHG,≤ 0.2
10,GDRM,≤ 0.2
11,TTLV,≤ 0.2
12,GGNG,≤ 0.2
13,WVHG,≤ 0.2
14,HRPR,≤ 0.2
15,KSQC,≤ 0.2
16,DTLV,≤ 0.2
17,AKSG,≤ 0.2
18,WKAV,≤ 0.2
19,PLID,≤ 0.2
20,QRNP,≤ 0.2
21,TPCK,≤ 0.2
22,LCRH,≤ 0.2
23,VDAR,≤ 0.2
24,DALS,≤ 0.2
25,QRTD,≤ 0.2
26,TFEL,≤ 0.2

row,Variant,one-hybrid fitness for binding parS DNA
1,MIPI,≤ 0.2
2,FSLM,≤ 0.2
3,WHAR,≤ 0.2
4,THAA,≤ 0.2
5,RVYE,≤ 0.2
6,PHRG,≤ 0.2
7,ADSP,≤ 0.2
8,DNQS,≤ 0.2
9,PMLL,≤ 0.2
10,WASR,≤ 0.2
11,MHYC,≤ 0.2
12,ETEN,≤ 0.2
13,MMVG,≤ 0.2
14,AISV,≤ 0.2
15,SCFS,≤ 0.2
16,KPYW,≤ 0.2
17,MWAI,0.223
18,RWKF,0.288
19,EYQR,≤ 0.2
20,NLVC,≤ 0.2
21,HNNF,≤ 0.2
22,QRPN,≤ 0.2
23,QWHI,≤ 0.2
24,TMSW,≤ 0.2
25,DFSS,≤ 0.2
26,VYLL,≤ 0.2

row,Variant,one-hybrid fitness for binding parS DNA
1,ATPG,≤ 0.2
2,LKSG,≤ 0.2
3,KYRS,0.225
4,NNYC,≤ 0.2
5,ISHD,≤ 0.2
6,TVQI,≤ 0.2
7,HHTC,≤ 0.2
8,AGWC,≤ 0.2
9,QRMV,≤ 0.2
10,NSLR,≤ 0.2
11,RVIF,≤ 0.2
12,RVYH,0.263
13,LFCA,≤ 0.2
14,RLSE,≤ 0.2
15,ISSI,≤ 0.2
16,SLKE,≤ 0.2
17,ELAV,≤ 0.2
18,RCPC,0.698
19,PPSG,≤ 0.2
20,QTQA,≤ 0.2
21,YDLS,≤ 0.2
22,RNWY,0.275
23,IPAV,≤ 0.2
24,PNDT,≤ 0.2
25,QYKD,≤ 0.2
26,VTFM,≤ 0.2

row,Variant,one-hybrid fitness for binding parS DNA
1,MCTR,≤ 0.2
2,LRNP,≤ 0.2
3,CVKR,≤ 0.2
4,RYFT,0.792
5,PVAN,≤ 0.2
6,ADAT,≤ 0.2
7,DMDV,≤ 0.2
8,PSKV,≤ 0.2
9,KENP,≤ 0.2
10,WKTL,≤ 0.2
11,QGSI,≤ 0.2
12,RGWM,≤ 0.2
13,DVYT,≤ 0.2
14,QMTH,≤ 0.2
15,LFCR,≤ 0.2
16,LLRT,≤ 0.2
17,FVAV,≤ 0.2
18,RRKV,0.232
19,TTCI,≤ 0.2
20,SAWS,≤ 0.2
21,DGVC,≤ 0.2
22,IAPF,≤ 0.2
23,ETLE,≤ 0.2
24,HHIH,≤ 0.2
25,IRRS,≤ 0.2
26,PSHP,≤ 0.2

row,Variant,one-hybrid fitness for binding parS DNA
1,RTYK,≤ 0.2
2,HFPW,≤ 0.2
3,WQSR,≤ 0.2
4,QLYW,≤ 0.2
5,AVRN,≤ 0.2
6,QSGG,≤ 0.2
7,YMEW,≤ 0.2
8,YGEG,≤ 0.2
9,RPAN,≤ 0.2
10,RLSY,0.482
11,KHTD,≤ 0.2
12,KGAC,≤ 0.2
13,RQRG,0.97
14,GGAN,≤ 0.2
15,IMAG,≤ 0.2
16,PNAY,≤ 0.2
17,NARV,≤ 0.2
18,PAMR,≤ 0.2
19,TSPS,≤ 0.2
20,IPVC,≤ 0.2
21,IRKV,≤ 0.2
22,CWQS,≤ 0.2
23,NCHD,≤ 0.2
24,WSVK,≤ 0.2
25,PIGR,≤ 0.2
26,FNRR,≤ 0.2

row,Variant,one-hybrid fitness for binding parS DNA
1,NDYR,≤ 0.2
2,QVSA,≤ 0.2
3,AMKG,≤ 0.2
4,LLVS,≤ 0.2
5,KKTK,≤ 0.2
6,WMEW,≤ 0.2
7,PGAK,≤ 0.2
8,EWEL,≤ 0.2
9,LLVT,≤ 0.2
10,HCPY,≤ 0.2
11,SYVW,≤ 0.2
12,SNHA,≤ 0.2
13,NAPT,≤ 0.2
14,RITF,0.254
15,SINT,≤ 0.2
16,MVDS,≤ 0.2
17,TAKI,≤ 0.2
18,SYRE,≤ 0.2
19,FQKG,≤ 0.2
20,TDNT,≤ 0.2
21,SWKC,≤ 0.2
22,CNRS,≤ 0.2
23,NLLK,≤ 0.2

# From a collection of fitness landscapes (doi:10.1016/j.celrep.2020.107928)
